To fix the notation:
T1: RBFOX1 RRM RbFoxmut (Fox-RRM*) (Homo sapiens, UniProt Q9NWB1 109-208, R118D;E147R;N151S;E152T)
T1 sequence: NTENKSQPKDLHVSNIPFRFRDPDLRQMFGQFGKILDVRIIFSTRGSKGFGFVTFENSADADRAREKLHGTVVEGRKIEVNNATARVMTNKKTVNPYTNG

B1: ACUGAGA (DNA:RNA)
RNA: GGGAGACCGGAAUUCAGAUUGUCCACUGAGAUUAAAUCCCGUCGUAGCCACCA
DNA 1: CAATCTGAATTCCGGTCTCCC
DNA 2: TGGTGGCTACGACGGGATT
B2: GUAUGGU (DNA:RNA)
RNA: B1 RNA with A25G, C26U, U27A, G28U, A29G, A31U
DNA 1: CAATCTGAATTCCGGTCTCCC
DNA 2: TGGTGGCTACGACGGGATT
B3: GCCUCUA (DNA:RNA)
RNA: B1 RNA with A25G, U27C, G28U, A29C, G30U
DNA 1: CAATCTGAATTCCGGTCTCCC
DNA 2: TGGTGGCTACGACGGGATT
B4: CUCGAGC (DNA:RNA)
RNA: B1 RNA with A25C, C26U, U27C, A31C
DNA 1: CAATCTGAATTCCGGTCTCCC
DNA 2: TGGTGGCTACGACGGGATT
B5: UGCAGAC (DNA:RNA)
RNA: GGGAGACCGGAAUUCAGAUUGUCCUGCAGACUUAAAUCCCGUCGUAGCCACCA
DNA 1: CAATCTGAATTCCGGTCTCCC
DNA 2: TGGTGGCTACGACGGGATT
B6: UGAGAUA (DNA:RNA)
RNA: B1 RNA with A25U, C26G, U27A, G30U
DNA 1: CAATCTGAATTCCGGTCTCCC
DNA 2: TGGTGGCTACGACGGGATT
B7: GUUCCUC (DNA:RNA)
RNA: B1 RNA with A25G, C26U, G28C, A29C, G30U, A31C
DNA 1: CAATCTGAATTCCGGTCTCCC
DNA 2: TGGTGGCTACGACGGGATT
B8: CGGAGGU (DNA:RNA)
RNA: B5 RNA with U25C, C27G, A30G, C31U
DNA 1: CAATCTGAATTCCGGTCTCCC
DNA 2: TGGTGGCTACGACGGGATT
B9: UAAUUCC (DNA:RNA)
RNA: B5 RNA with G26A, C27A, A28U, G29U, A30C
DNA 1: CAATCTGAATTCCGGTCTCCC
DNA 2: TGGTGGCTACGACGGGATT
B10: UCUCGAA (DNA:RNA)
RNA: B1 RNA with A25U, G28C, A29G, G30A
DNA 1: CAATCTGAATTCCGGTCTCCC
DNA 2: TGGTGGCTACGACGGGATT
B11: AUAUACA (DNA:RNA)
RNA: B1 RNA with C26U, U27A, G28U, G30C
DNA 1: CAATCTGAATTCCGGTCTCCC
DNA 2: TGGTGGCTACGACGGGATT
B12: GUAGGAU (DNA:RNA)
RNA: B5 RNA with U25G, G26U, C27A, A28G, C31U
DNA 1: CAATCTGAATTCCGGTCTCCC
DNA 2: TGGTGGCTACGACGGGATT
B13: UUCUUAU (DNA:RNA)
RNA: B5 RNA with G26U, A28U, G29U, C31U
DNA 1: CAATCTGAATTCCGGTCTCCC
DNA 2: TGGTGGCTACGACGGGATT
B14: CAAGACU (DNA:RNA)
RNA: B1 RNA with A25C, C26A, U27A, G30C, A31U
DNA 1: CAATCTGAATTCCGGTCTCCC
DNA 2: TGGTGGCTACGACGGGATT
B15: GCCGACC (DNA:RNA)
RNA: B1 RNA with A25G, U27C, G30C, A31C
DNA 1: CAATCTGAATTCCGGTCTCCC
DNA 2: TGGTGGCTACGACGGGATT
B16: GCGUGCC (DNA:RNA)
RNA: B5 RNA with U25G, G26C, C27G, A28U, A30C
DNA 1: CAATCTGAATTCCGGTCTCCC
DNA 2: TGGTGGCTACGACGGGATT
B17: GUUCUCA (DNA:RNA)
RNA: B1 RNA with A25G, C26U, G28C, A29U, G30C
DNA 1: CAATCTGAATTCCGGTCTCCC
DNA 2: TGGTGGCTACGACGGGATT
B18: CCUGCCG (DNA:RNA)
RNA: B1 RNA with A25C, A29C, G30C, A31G
DNA 1: CAATCTGAATTCCGGTCTCCC
DNA 2: TGGTGGCTACGACGGGATT
B19: AGAGGGG (DNA:RNA)
RNA: B1 RNA with C26G, U27A, A29G, A31G
DNA 1: CAATCTGAATTCCGGTCTCCC
DNA 2: TGGTGGCTACGACGGGATT
B20: UAGCCCU (DNA:RNA)
RNA: B5 RNA with G26A, C27G, A28C, G29C, A30C, C31U
DNA 1: CAATCTGAATTCCGGTCTCCC
DNA 2: TGGTGGCTACGACGGGATT
B21: UCAUGCA (DNA:RNA)
RNA: B1 RNA with A25U, U27A, G28U, A29G, G30C
DNA 1: CAATCTGAATTCCGGTCTCCC
DNA 2: TGGTGGCTACGACGGGATT
B22: CCAUGGU (DNA:RNA)
RNA: B1 RNA with A25C, U27A, G28U, A29G, A31U
DNA 1: CAATCTGAATTCCGGTCTCCC
DNA 2: TGGTGGCTACGACGGGATT
B23: AGCUUGG (DNA:RNA)
RNA: B1 RNA with C26G, U27C, G28U, A29U, A31G
DNA 1: CAATCTGAATTCCGGTCTCCC
DNA 2: TGGTGGCTACGACGGGATT
B24: AUUGAGA (DNA:RNA)
RNA: B1 RNA with C26U
DNA 1: CAATCTGAATTCCGGTCTCCC
DNA 2: TGGTGGCTACGACGGGATT
B25: CGGUUAA (DNA:RNA)
RNA: B5 RNA with U25C, C27G, A28U, G29U, C31A
DNA 1: CAATCTGAATTCCGGTCTCCC
DNA 2: TGGTGGCTACGACGGGATT
B26: ACAGUAU (DNA:RNA)
RNA: B1 RNA with U27A, A29U, G30A, A31U
DNA 1: CAATCTGAATTCCGGTCTCCC
DNA 2: TGGTGGCTACGACGGGATT
B27: CGAGGAU (DNA:RNA)
RNA: B5 RNA with U25C, C27A, A28G, C31U
DNA 1: CAATCTGAATTCCGGTCTCCC
DNA 2: TGGTGGCTACGACGGGATT
B28: ACCGGUA (DNA:RNA)
RNA: B1 RNA with U27C, A29G, G30U
DNA 1: CAATCTGAATTCCGGTCTCCC
DNA 2: TGGTGGCTACGACGGGATT
B29: GAUAGAC (DNA:RNA)
RNA: B5 RNA with U25G, G26A, C27U
DNA 1: CAATCTGAATTCCGGTCTCCC
DNA 2: TGGTGGCTACGACGGGATT
B30: AGGCAAG (DNA:RNA)
RNA: B1 RNA with C26G, U27G, G28C, G30A, A31G
DNA 1: CAATCTGAATTCCGGTCTCCC
DNA 2: TGGTGGCTACGACGGGATT
B31: UGCCGCG (DNA:RNA)
RNA: B5 RNA with A28C, A30C, C31G
DNA 1: CAATCTGAATTCCGGTCTCCC
DNA 2: TGGTGGCTACGACGGGATT

Positions count from the first letter of the chain named. The list shows a part of the results.

For the experiment, the target named is T1, RBFOX1 RRM RbFoxmut (Fox-RRM*). The experiment can be described thus: EMSA; HiTS-Eq, 1 nM pool, 10 min; buffer printed only for the single-RNA assays: 10 mM Tris pH 7.5, 150 mM NaCl, 3.4 mM EDTA, 0.001% NP-40, 30 C. To be noted: tags: His6 N-terminal (pET28a); label: 5' 32P. The method, boiled down:
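Purified wild-type or mutant RbFox RRM at increasing concentrations was equilibrated with 1 nM of 5′-radiolabelled RNA carrying 7 randomized nucleotides for 10 min in 50 µL. Unbound RNA was separated by 8% native PAGE and sequenced. Relative association constants came from read-count changes of each RNA species compared with the control reaction, normalised to the cognate motif.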
With B1, the binding signal is 0.0809 KA relative to UGCAUGU.

On to B2, for which the binding signal was 0.325 KA relative to UGCAUGU.

For B3, the binding signal was 0.0902 KA relative to UGCAUGU.

With B4, the binding signal was 0.0956 KA relative to UGCAUGU.

As to B5, the binding signal is 0.0961 KA relative to UGCAUGU.

On to B6, for which the binding signal is 0.127 KA relative to UGCAUGU.

In the case of B7, the binding signal was 0.0747 KA relative to UGCAUGU.

As for B8, the binding signal was 0.119 KA relative to UGCAUGU.

B9: the binding signal was 0.067 KA relative to UGCAUGU.

Regarding B10, the binding signal was 0.08 KA relative to UGCAUGU.

With B11, the binding signal is 0.0965 KA relative to UGCAUGU.

For B12, the binding signal was 0.069 KA relative to UGCAUGU.

B13: the binding signal was 0.111 KA relative to UGCAUGU.

For B14, the binding signal is 0.0508 KA relative to UGCAUGU.

As to B15, the binding signal is 0.0677 KA relative to UGCAUGU.

On to B16, for which the binding signal was 0.223 KA relative to UGCAUGU.

On to B17, for which the binding signal is 0.129 KA relative to UGCAUGU.

Regarding B18, the binding signal is 0.0847 KA relative to UGCAUGU.

B19: the binding signal was 0.0899 KA relative to UGCAUGU.

On to B20, for which the binding signal was 0.0798 KA relative to UGCAUGU.

As to B21, the binding signal is 0.197 KA relative to UGCAUGU.

Turning to B22, the binding signal is 0.125 KA relative to UGCAUGU.

On to B23, for which the binding signal is 0.123 KA relative to UGCAUGU.

On to B24, for which the binding signal was 0.0924 KA relative to UGCAUGU.

For the molecule B25, the binding signal was 0.0724 KA relative to UGCAUGU.

For the molecule B26, the binding signal is 0.136 KA relative to UGCAUGU.

For B27, the binding signal was 0.0964 KA relative to UGCAUGU.

With B28, the binding signal was 0.0921 KA relative to UGCAUGU.

Consider B29, for which the binding signal is 0.0781 KA relative to UGCAUGU.

Take B30: the binding signal is 0.0822 KA relative to UGCAUGU.

Regarding B31, the binding signal was 0.111 KA relative to UGCAUGU.
